B1: LINE1-full (parent)
chain: UACGUAGGUGGUUUUCCCCUGAUAGUGCUAAGGGGGCCUGGAAGUUUGGACUGGGCAGAGCUCAACACAGCGUGGCAAAGUGGCUGUGGCUAGACUGCCUCUCUGGAUUCCUCGUCACUCAGCAGGGCAUCUCUGAGAGAAAUGCC

Read counts are not given, so values of variants with three or more changes are uncertain.

The variants in this data set derive from B1. The data set can be described thus: self-cleavage, relative activity (ratio to wild type); higher = more cleavage; in vitro, sequencing; the parent is a self-cleaving ribozyme.
Take U39A U134C U143A: the self-cleavage was 1.02.
The result for U39A U81G U85A A141G reads 0.11; that for U39C A57G U62C, 0.35; that for U39C U87A A92G, 0.
For U39C A43G U100C U119C A138G, the self-cleavage is 1.53.
As for U39A U85A U96C, the self-cleavage was 0.05.
The same measure for U39C A79G U143G: 1.96.
U39A C51A A59C A69G: the self-cleavage stood at 0.6.
The same measure for U39C C63U C103A: 0.3.
U39A A79G G89U C98U U134C: the self-cleavage is 0.02.
Take U39A U81C G88A: the self-cleavage amounted to 0.09.
Consider U39C A59G A67U U102C A121U G126A, for which the self-cleavage stood at 0.14.
U39C A121G A140G A141G: the self-cleavage came out at 1.53.
In the case of U39A C56U A69U U96C A140G, the self-cleavage was determined as 0.12.
On to U39A U87C A136U, for which the self-cleavage came to 0.11.
Consider U39A A65G U85C, for which the self-cleavage is 0.14.
On to U39A U85C A138U, for which the self-cleavage was 0.11.
Regarding U39A U46G U62C A64U U100A, the self-cleavage amounted to 0.
As to U39C A77G C103A A117U, the self-cleavage is 1.73.
For U39C A69G A77U, the self-cleavage was 0.12.
The result for U39G A121U U134A reads 1.43; that for U39C U52C U115C A138G, 0.8; that for U39C U96A U102A, 0.06.
The same measure for U39G C66U U73C: 0.08; for U39A C131A U132C: 1.17; for U39C A67U A94C: 0.
On to U39C A121U U143C, for which the self-cleavage is 1.09.
For U39C G41A A94G A117U, the self-cleavage stood at 0.25.
The result for U39C A67U U96C A136G reads 0; that for U39A C98A U115C, 0.11.
The result for U39C A64G U119G G127A reads 0; that for U39A C113A U132C A138U, 1.39.
U39A A67G G72A: the self-cleavage is 0.4.
Regarding U39A U62C U130C U143C, the self-cleavage was found to be 0.
In the case of U39C A59G C99U A140G, the self-cleavage came to 0.04.
With U39C A64G A65G A77G G93A, the self-cleavage was found to be 0.
Regarding U39A U47A A138G, the self-cleavage is 1.17.
Turning to U39A A67U U81A U100C A107G, the self-cleavage amounted to 0.22.
For U39A U134C A142G, the self-cleavage turned out to be 1.51.
The same measure for U39A A94U U112C: 0.23; for U39A A79G U100C C120U: 1.36; for U39C U46A U47A U87C U96C U132A: 0.
Consider U39A A117G G122C A138G, for which the self-cleavage amounted to 1.77.
For U39A U47C U62C C98G C128U G144A, the self-cleavage was 0.03.
For the variant U39C U47G A142G, the self-cleavage is 1.05.
On to U39A A77G A121U, for which the self-cleavage stood at 2.46.
As to U39A U81A U91C, the self-cleavage amounted to 0.38.
As to U39C U81A C128U, the self-cleavage turned out to be 0.97.
For U39A G60A U102A, the self-cleavage was 0.06.
Turning to U39A A77U G80A U143A, the self-cleavage turned out to be 1.44.
The result for U39C A65G A142G reads 0.
The result for U39C A64U A77U A117U reads 0.08; that for U39C A69G C128U, 0.43.
In the case of U39C A138G A140G, the self-cleavage is 0.97.
The same measure for U39C G48A U108G: 0.57; for U39C U130C A136G: 1.74; for U39A U47A A57G G74U A77G: 0.85.
For U39C A50U C101U U104C A140G, the self-cleavage is 0.82.
Turning to U39C A79G A94U, the self-cleavage was 0.39.
For the variant U39A C111U A142G, the self-cleavage worked out at 1.08.
In the case of U39C U115C C145U, the self-cleavage came out at 1.48.
With U39C U96C U115A, the self-cleavage was 0.05.
Regarding U39C A79G U115C U143C, the self-cleavage turned out to be 0.71.
Turning to U39C A64G U87C, the self-cleavage is 0.
As for U39C U73C U91C C99U, the self-cleavage was determined as 0.
Consider U39C A50G U73A U134C, for which the self-cleavage is 0.9.
As to U39A U62C A65G, the self-cleavage came out at 0.
Regarding U39C U108C A124U, the self-cleavage came to 1.98.
Take U39C A79U A124U U134C A141G: the self-cleavage was determined as 1.55.
For U39C U62C A65G C123U, the self-cleavage amounted to 0.2.
Turning to U39C C71G U96C U104A, the self-cleavage is 0.12.
The result for U39C U47C A57G C99U reads 0.46; that for U39C U112C G114A A138U, 1.84.
For the variant U39C U73C C101U C128U A138G, the self-cleavage came out at 1.95.
Regarding U39C G82A U108C, the self-cleavage worked out at 2.39.
Consider U39C A77C G80U, for which the self-cleavage was found to be 0.99.
Turning to U39C C61A A78U, the self-cleavage is 0.05.
Turning to U39C A42U A124U, the self-cleavage was 1.01.
U39A C61U A79U: the self-cleavage is 0.05.
For U39C G44A A57U U73C U130C, the self-cleavage stood at 0.11.
Take U39A A78G U115C: the self-cleavage came to 1.29.
Consider U39C A42G U62A U104A U119A, for which the self-cleavage was determined as 0.24.
The same measure for U39C A77G G82A U87C A92G: 0; for U39A U115C U130C U143C: 2.12; for U39C U81A U85G U100C U112C: 0.
The result for U39C U85C U96A U115A A141U reads 0.16.
As to U39A A79U U85A, the self-cleavage is 0.08.
Regarding U39C U45C A65G C90U U115A, the self-cleavage amounted to 0.
The result for U39C G48A A138U reads 0.93; that for U39A U81A U115C C116U A138U, 2.33; that for U39C U87C A117U, 0.17.
The same measure for U39C A42G U132A: 0.66.
As for U39A U52C A57U U115A A141G, the self-cleavage was 0.4.
Turning to U39C C84U U134C A140G, the self-cleavage came out at 0.14.
As for U39C G49A A78G U115G U119C, the self-cleavage is 2.3.
In the case of U39A U115C C131U A136G, the self-cleavage stood at 1.38.
U39A U62C A78G U109C: the self-cleavage was 0.08.
Consider U39C U73C A94G G105A, for which the self-cleavage was determined as 0.53.
U39A A78G U112C A140U: the self-cleavage turned out to be 0.65.
U39A A78G G135A: the self-cleavage turned out to be 1.87.
Take U39C G40U U81A: the self-cleavage amounted to 1.88.
On to U39A U62G C63U A65C, for which the self-cleavage came to 0.15.
U39C U45C U115C: the self-cleavage was determined as 0.66.
For the variant U39C U47C U102A, the self-cleavage was determined as 1.2.
On to U39A U45A U115C, for which the self-cleavage is 1.77.
With U39A G72U C101A, the self-cleavage turned out to be 2.63.
On to U39A U47G A50G A57C G74A, for which the self-cleavage worked out at 0.05.
As to U39C A77U A138U, the self-cleavage turned out to be 1.49.
As to U39C U130C A142G, the self-cleavage turned out to be 1.78.
For the variant U39C A59G U112C, the self-cleavage was determined as 0.39.
As to U39A A77U U102C G122U, the self-cleavage turned out to be 1.25.
Take U39C U46C A67G: the self-cleavage amounted to 0.15.
In the case of U39A C66U A78G U85A G89A A142G, the self-cleavage came to 0.01.
For the variant U39C A69G U96A G114U, the self-cleavage stood at 0.
U39A U102C A142G: the self-cleavage was 1.47.
With U39C U52A A69G G75A A92G U119C, the self-cleavage came out at 0.
The result for U39C U130A A141G reads 0.86; that for U39C A79G U91C U143C, 0.
The result for U39A U87A C90U A121U reads 0.02; that for U39C A94G U132C A138G, 0.51; that for U39C A43G U112C, 1.64.
In the case of U39A U81G A121U, the self-cleavage stood at 2.1.
With U39A U52C A94G U96G, the self-cleavage amounted to 0.
On to U39A U85A A140G A142G, for which the self-cleavage was 0.
Take U39A U85C U104A U109A G114A C128U: the self-cleavage amounted to 0.05.
On to U39A A117U U119C, for which the self-cleavage came to 1.58.
As to U39A U46C U87C U130C, the self-cleavage was 0.23.
U39C A42G U47C U73A C120U A121U: the self-cleavage stood at 2.61.
For the variant U39C A59G A78G A141G, the self-cleavage came out at 0.1.
U39C A77U U130C: the self-cleavage is 1.19.
U39C A107U U112C: the self-cleavage turned out to be 1.65.
Consider U39C A57U U81A G122A, for which the self-cleavage came to 0.05.
In the case of U39C U52C C76A U104C A117C, the self-cleavage came to 3.
As for U39A G89C A129G A141G, the self-cleavage stood at 0.
Take U39C A67G A78G: the self-cleavage came to 0.92.
Take U39A A78G A92G U100C: the self-cleavage was found to be 1.23.
Consider U39C U46C U87C, for which the self-cleavage turned out to be 0.
In the case of U39C A57U A69G A107U, the self-cleavage was 0.
As for U39A U62A A141G, the self-cleavage stood at 0.04.
As to U39C A79G C101A A107G, the self-cleavage amounted to 2.7.
For U39C U96G A142G, the self-cleavage was determined as 0.
Consider U39C G40U A129G A136G, for which the self-cleavage turned out to be 1.37.
With U39C A43G A140G, the self-cleavage stood at 0.28.
On to U39A U62C A141G, for which the self-cleavage came out at 0.01.
Turning to U39C A50G C113U, the self-cleavage came to 1.08.
In the case of U39A U85C U104A A140G, the self-cleavage was determined as 0.1.
Regarding U39C A136U A140G, the self-cleavage worked out at 1.31.
The result for U39A U46A U108C reads 1.55; that for U39C A65G U104C, 0; that for U39A U46C G53U, 1.6.
For the variant U39A U115G U130C, the self-cleavage came to 2.22.
As to U39A A69G U104C, the self-cleavage is 1.75.
As to U39C A50U A94G, the self-cleavage was 0.53.
As for U39A U45C A57U U108C U119C, the self-cleavage was found to be 0.44.
Turning to U39A U45C C76U, the self-cleavage is 1.89.
Consider U39A U47C U112C, for which the self-cleavage was determined as 2.47.
On to U39A U45C C63U C76U C98A A141G, for which the self-cleavage worked out at 0.08.
The result for U39A A67G G74A A121G reads 0.27; that for U39C A43G U102C A138G, 1.31; that for U39C A117C A129G, 1.84.
The same measure for U39C C56U G106U: 0.06.
For the variant U39C A57G U81G U87C A141C, the self-cleavage came to 0.
For the variant U39C U45C A140G, the self-cleavage came to 1.54.
For the variant U39A U52A U108C, the self-cleavage amounted to 1.77.
Regarding U39C C76U U102C A124C, the self-cleavage was 1.87.
U39A U119C A121U A138G: the self-cleavage turned out to be 1.71.
The result for U39C U52C U87A reads 0.06.

The values above are taken from the RNAGym collection of RNA variant scans (doi:10.7554/elife.90254).
